Some of the results follow.

The source of these data is PMC12040169 (PLOS Biology, 2025).

This test concerns T1, C. trachomatis L2/434/Bu expressing GFP (CTL2-GFP).
T1 construct: L2/434/Bu GFP intracellular growth in HeLa cells
Also on record: species or system HeLa; C. trachomatis total inclusion area by high-content imaging, normalised to DMSO. The conditions noted are these: total inclusion area; 28.5 h, 10 µM; inhibitor. In outline: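 Bulk GFP and resorufin signals were read first. Wells were then fixed, stained with Hoechst and imaged to detect GFP inclusions and host nuclei. MICs followed the previously described calculation.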
`Cc1nc(C2CN(Cc3ccc(Cl)c4cccnc34)CCO2)no1` (stereo not shown) [CBK305384]: the “% of control remaining” value worked out at 65.7062.
The value for `Cc1ccc(C2CC(=O)C(=CNCCN3CCN(C(=S)Nc4ccccc4)CC3)C(=O)C2)cc1` (stereo not shown) [CBK263665] was 98.3502; that for `O=C(Nc1ccc2oc(-c3cccnc3)nc2c1)c1ccc(-c2ccccc2OC(F)(F)F)o1` [CBK263872] was 87.4186.
As to `CCc1c(C)nc2n(c1=O)C(CS(=O)(=O)c1ccccc1)CS2` (stereo not shown) [CBK268949], the “% of control remaining” value came to 97.7477.
With `Cc1nc2c(c(=O)[nH]1)CN(C1CCCCC1)CC2` [CBK282416], the “% of control remaining” value is given as 90.5542.
On to `S=c1[nH]ccn1Cc1cccs1` [CBK008454], for which the “% of control remaining” value worked out at 96.1446.
The value for `COc1ccc([C@@]23CC[C@@H](NC(=O)Nc4cccc(C(F)(F)F)c4F)C[C@@H]2CN(C)C3)cc1OC` [CBK063195A] was 74.2053.
Next, `COc1ccccc1NC(=O)CNC(=O)c1ccc([N+](=O)[O-])cc1` [CBK268657]: 112.601; `C[C@H](Nc1cncc(-c2ccc(F)cc2F)n1)c1ccccc1` [CBK065684]: 92.3285.
For `Nc1ccc(-c2nc(-c3ccccc3)c3cc(-c4ccc5nc(-c6ccc(N)cc6)nc(-c6ccccc6)c5c4)ccc3n2)cc1` [CBK261152], the “% of control remaining” value was 67.2524.
Take `Sc1nnc(CSCc2ccccc2Cl)n1-c1ccccc1` [CBK265219]: the “% of control remaining” value turned out to be 105.099.
As to `Cc1nnnn1-c1cc(NC(=O)NCCCn2ccnc2)ccc1F` [CBK305349], the “% of control remaining” value was 38.4227.
The value for `COc1ccccc1CC(=O)NCc1nc(-c2cccc(C)c2)no1` [CBK269336] was 80.3062; that for `Cn1c(COc2cccc3cccnc23)nnc1SCC(=O)O` [CBK300505] was 111.453; that for `COc1ccc(C)cc1S(=O)(=O)N(CC(=O)Nc1ccccc1C)c1ccc(Cl)cc1` [CBK267995] was 96.2032.
The value for `Cc1ccnc2nc(C(=O)Nc3ccc4c(c3)CCC4)nn12` [CBK295194] was 110.781; that for `CCCc1cc(C2CCCCCN2C(=O)c2cccnc2)no1` (stereo not shown) [CBK282987] was 118.154.
The value for `COc1ccc2c(CC(=O)Nc3cccc(-c4csc(C)n4)c3)coc2c1` [CBK295149] was 108.968.
Regarding `O=S(=O)(c1ccccc1)c1cn2ccnc2c(N2CCNCC2)n1` [CBK200021T], the “% of control remaining” value is recorded as 95.8339.
Next, `CC(C)c1ccc(S(=O)(=O)N(C)Cc2cccnc2)cc1` [CBK043582]: 82.7542; `CC(=O)Nc1ccc(C(=O)N2CCC(c3cccc(Cc4ccccc4Cl)n3)CC2)cc1` [CBK286111]: 127.121; `CN(C)CCNc1nccc2sc(S(=O)(=O)NCCC3=CCCCC3)cc12` [CBK038244C]: 62.1885.
On to `Cc1nccn1CCCn1cncc1-c1ccc2c(c1)CCCN2C` [CBK282962], for which the “% of control remaining” value stood at 81.1327.
Take `COc1ccc(C)cc1S(=O)(=O)N(C)CC(=O)O` [CBK267863]: the “% of control remaining” value came out at 120.256.
Next, `COc1cc(C2c3c(oc4ccc(Cl)cc4c3=O)C(=O)N2CC2CCCO2)ccc1OCc1ccccc1` (stereo not shown) [CBK267581]: 95.219; `CC(=O)Nc1ccc(NC(=O)C2COc3ccccc3O2)cc1C` (stereo not shown) [CBK269898]: 91.474.
Next, `Fc1ccccc1CSc1nc2ncccc2[nH]1` [CBK287883]: 83.272; `CCCCN(C)C(=O)Cn1nc(C)c2ccccc2c1=O` [CBK305050]: 87.476; `CCC(CO)NC(=O)c1cnc(-c2cccc(C)c2)c(-c2ccc(OC)cc2)c1` (stereo not shown) [CBK037460]: 142.973.
For `COc1ccccc1NC(=O)CSc1nnc(-c2ccncc2)o1` [CBK287743], the “% of control remaining” value is listed as 73.5169.
In the case of `Cn1nc(C(C)(C)C)cc1C(=O)N1CCNC(=O)C1Cc1ccc(-c2cccs2)cc1` (stereo not shown) [CBK285810], the “% of control remaining” value is on record as 115.412.
The value for `O=C(Nc1ccccc1C(=O)O)c1cccc(-n2cnnc2)c1` [CBK269769] was 94.7679.
Next, `Cc1[nH]c2ccccc2c1/C=C1/SC(=S)N(CC(=O)O)C1=O` [CBK262220]: 87.1433; `COc1ccc(CN2CC[C@@H]3[C@H](C2)[C@@H](c2ccc(F)cc2)CN3C(=O)c2ccccc2)cc1` [CBK286290]: 69.4968; `CC1(C)CC(=O)c2sc(NC(=O)c3ccccc3)nc2C1` [CBK287318]: 80.3152.
The value for `COc1ccc2cc(CNc3ccc(F)c([N+](=O)[O-])c3)c(Cl)nc2c1` [CBK295133] was 116.263; that for `C1=NC2C(COCc3ccccc3)CCC2N1c1ccccc1` (stereo not shown) [CBK010679] was 79.4977.
Consider `O=C(O)c1cc(-c2ccc3c(c2)OCCO3)nc2ccccc12` [CBK262422], for which the “% of control remaining” value was 105.302.
The value for `COc1ccccc1CN(CCCn1ccnc1)Cc1ccco1` [CBK283116] was 75.1225; that for `CCN(CC)CCNc1nc2c(=O)[nH]c(=O)n(C)c2[nH]1` [CBK287918] was 70.6; that for `CCOc1cc(C)c(C(C)C)cc1S(=O)(=O)NCCN1CCOCC1` [CBK268727] was 122.506.
The value for `COc1cc2c(cc1OC)C(CCN1CCN(c3ccc(Cl)cc3)CC1)OCC(C)(C)C2` (stereo not shown) [CBK024051C] was 57.4013; that for `CC(=O)Nc1ccc(S(=O)(=O)Nc2ccc(C(=O)Nc3ccc(F)cc3)cc2)cc1` [CBK050401] was 23.6801; that for `CCN1CCN(c2ccc(NS(=O)(=O)c3ccccc3)c3ccccc23)CC1` [CBK200011C] was 99.4776.
With `CCN(CC)C(=O)C1CCCN(C(=O)NCc2ccc(C#N)cc2)C1` (stereo not shown) [CBK156132], the “% of control remaining” value is 86.7713.
The value for `O=C1c2ccccc2C(=O)N1CCOc1nccnc1-c1ccsc1` [CBK106760] was 90.6527; that for `Clc1ccc(CSc2cccs2)cn1` [CBK002639] was 99.7629.
On to `COc1ccc2cc(C(=O)NCCCc3ccccn3)n(C)c2c1` [CBK282545], for which the “% of control remaining” value is reported as 129.895.
Next, `O=C(N[C@H]1CCN2C(=O)c3cc(-c4ccccc4F)ccc3NC(=O)[C@H]12)c1cnccn1` [CBK289274]: 102.808; `CC(C)(C)OC(=O)N1CCCN(Cc2nc(-c3cccnc3)no2)CC1` [CBK305309]: 90.3447.
For the compound `OCC1OC(n2cnc3c(Oc4ccccc4)ncnc32)CC1O` (stereo not shown) [CBK201181], the “% of control remaining” value is listed as 87.9814.
The value for `O=C(Nn1cnnc1)c1ccccc1F` [CBK027603] was 123.483; that for `CC1=NN(c2ccc(C)cc2)C(=O)/C1=C\Nc1ccc(S(=O)(=O)Nc2nc(C)cc(C)n2)cc1` [CBK262398] was 24.9934; that for `O=C(O)c1cccc(NS(=O)(=O)c2ccc(OC(F)(F)F)cc2)c1` [CBK155077] was 84.0496.
The value for `O=C(Cc1ccc(F)cc1)N1CCC(n2cnc3cccnc32)CC1` [CBK283574] was 75.8089.
For `c1ccc2nc(N3CCCC3)c(Sc3nc[nH]n3)nc2c1` [CBK115265], the “% of control remaining” value was 85.8904.
For `OC(CN1CCC(O)(c2ccccc2F)CC1)c1ccc(Cl)cc1` (stereo not shown) [CBK283312], the “% of control remaining” value is 93.7426.
Consider `CC(C)n1c(=O)oc2cc(S(=O)(=O)NC(c3ccccc3)c3ccccc3)ccc21` [CBK286350], for which the “% of control remaining” value came to 79.8552.
The value for `CC(C)CCN[C@H]1CO[C@H]2[C@@H]1OC[C@@H]2n1nnnc1-c1ccccc1` [CBK289537] was 97.0399; that for `CC1(C)CC(=O)C2=C(C1)c1c(ccc3ccccc13)NC2c1ccc(-c2ccc(O)c(C(=O)O)c2)o1` (stereo not shown) [CBK261823] was 80.9737.
Next, `Cc1c(C(=O)Nc2cccc(C(F)(F)F)c2)sc2nc(-c3ccccc3)cn12` [CBK294408]: 122.731; `COc1ccccc1Cc1cccc(C2CCCN2C(=O)CCc2ccccc2)n1` (stereo not shown) [CBK286229]: 63.096; `O=c1[nH]c2ncc(-c3ccco3)nc2n1CCc1cccnc1` [CBK064494]: 100.563.
The value for `O=c1c2c3c(sc2ncn1CC(O)COc1ccc(F)cc1)CCC3` (stereo not shown) [CBK295191] was 67.2484.
As for `C[C@@H](Cn1nnc2ccccc21)NC(=O)c1cccs1` [CBK284322], the “% of control remaining” value worked out at 62.857.
Next, `CCOC(=O)c1cccc(NS(=O)(=O)c2ccc(-c3ccccc3)cc2)c1` [CBK034341]: 85.866.
Next, `CC(=O)Nc1ccc(N(CC(O)Cn2c3ccccc3c3ccccc32)S(C)(=O)=O)cc1` (stereo not shown) [CBK264352]: 117.74; `O=C(O)C1CC=CCC1C(=O)Nc1ccc(CN2CCOCC2)cc1` (stereo not shown) [CBK299786]: 88.7742.
The value for `O=S(=O)(Nc1nnc(C(F)(F)F)s1)c1ccc(-c2cc(C(F)(F)F)on2)s1` [CBK062019] was 81.6661; that for `Cc1cccc(Cn2c(=O)c3cnc(-c4ccncc4)nc3n(C)c2=O)c1` [CBK288593] was 109.76; that for `CNC(=O)CSc1nnc(COc2cccc3ccccc23)n1-c1ccccc1` [CBK266043] was 137.39.
Regarding `COCC(=O)N[C@H]1C[C@H]2C(=O)Nc3ccc(/C=C/c4ccccc4)cc3C(=O)N2C1` [CBK289366], the “% of control remaining” value came out at 2.445.
Next, `O=C(c1cccs1)N1CCC(c2nnc3n2CCCCC3)CC1` [CBK284626]: 50.4005; `Nc1nccn(CCOc2cc(F)c(F)cc2F)c1=O` [CBK138204T]: 100.508.
With `COC(=O)c1ccccc1NC(=O)CC1Nc2ccccc2NC1=O` (stereo not shown) [CBK269276A], the “% of control remaining” value is given as 91.1197.
Take `CCn1cc(CC(=O)NCCn2ccc(C)n2)c2ccccc21` [CBK282670]: the “% of control remaining” value is given as 118.396.
Regarding `COc1ccc(-c2nnc3ccc(SC(C)C)nn23)cc1OC` [CBK287526], the “% of control remaining” value is 95.7841.
The value for `Cc1nonc1NC(=O)CN1CCCCC1` [CBK261839] was 103.981; that for `CCn1c(SCC(=O)N2CCC(C(N)=O)(N3CCCCC3)CC2)nnc1-c1ccccc1` [CBK266135] was 126.593.
